From patent US8759400B2, “Histone deacetylase inhibitors for enhancing activity of antifungal agents” (MethylGene Inc., priority 2005, dated 2014) come the findings set out here.

Broadly, the MIC is the lowest concentration found to suppress growth.

Assay [1] deals with C. albicans (ATCC 90028), C. glabrata (ATCC 90030), C. parapsilosis (ATCC 22019), or C. tropicalis (ATCC 750). The experiment in a line: Synergy of Compound 4 with antifungals of different mechanisms, broth microdilution.
A further assay has as its system C. albicans (ATCC 90028). Briefly: MIC80 and checkerboard synergy with antifungal agents. The format is cell-based. The settings on record: Candida albicans, ATCC90028; C. albicans (90028); read-out: Cpd 4 MIC.
A further assay deals with C. glabrata (ATCC 90030). Described as above. Type of assay: cell-based, Candida glabrata. Particulars: Nakaseomyces glabratus, ATCC90030; C. glabrata (90030); read-out: Cpd 4 MIC.

For the compound `O=C(Cc1ccc(CCCCc2ccccc2)cc1)NO` [Cpd 4], in assay [1] (all azoles tested, all Candida species), the synergy with azoles entry is given as “synergized”. Moreover, the “synergy with terbinafine and fenpropimorph” value in assay [1] (ergosterol synthesis inhibitors not acting on C-14 demethylase) is listed as “synergized”. Also, in assay [1] (mechanism outside the ergosterol synthesis pathway), the synergy with nikkomycin entry is “Synergy was also observed”. Also, the “synergy with amphotericin B, caspofungin, or 5-fluorocytosine” value in assay [1] (mechanisms outside the ergosterol synthesis pathway) is given as “did not synergize”. Moreover, the MIC in the assay with C. albicans (ATCC 90028) was 6.3 µg/mL; in the assay on C. glabrata (ATCC 90030), 3.1 to 6.3 µg/mL.
